This is one part of the list. No stated cut-off is given here; in the data, active = 25% or less and inactive = the rest. Single values are uncertain, as repeats are few or missing.
Tested on: Salmonella enterica serovar Typhimurium SL1344
Experiment: intramacrophage bacterial GFP load (SAFIRE), percent of DMSO control (% of DMSO); higher = more intracellular bacteria (less inhibition)
Conditions: 25 µM; system: infected RAW 264.7 macrophages
Description: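 Secondary screen of the 553 primary hits at 25 µM. (i) S. Typhimurium SL1344 grown in Mueller-Hinton broth with 0.5 µg/mL polymyxin B, OD600 read after 18 h. (ii) SAFIRE assay: RAW 264.7 macrophages infected with S. Typhimurium sifB::gfp (MOI 30); compound added 2 h post-infection; cells fixed at 18 h; GFP-positive pixel fraction per macrophage imaged by confocal microscopy and expressed as % of DMSO control.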
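Further: compounds tested were the hits of an earlier 50 µM broth growth screen of a drug-like diversity library run with polymyxin B.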

SMILES	intramacrophage bacterial GFP load
CC1CN(Cc2ccc3nsnc3c2)Cc2cc(Cl)ccc2O1 (stereo not drawn)	inactive: 134
CCOC(=O)C1(Cc2ccccc2Cl)CCN(C(=O)c2ccsc2)CC1	inactive: 42.8
COCc1noc(-c2ccc(N3CCCC3c3nccs3)nc2)n1 (stereo not drawn)	inactive: 208
O=C(c1cnn2cccnc12)N(Cc1ccncc1)Cc1cccc(OCCc2ccc(F)cc2)c1	inactive: 49.9
CC(C)C(=O)N(C)C(Cc1ccccc1)C1CCN(C(=O)/C=C/c2cc(F)ccc2F)CC1 (stereo not drawn)	inactive: 108
O=C(NC1Cc2ccccc2C1)c1coc(COc2cccc(F)c2)n1	inactive: 149
CCCCn1c(CN2CCC(C(O)CC)CC2)cnc1S(=O)(=O)CCCC(C)C (stereo not drawn)	active: 11.9
Cc1cc(C)n(CCC(=O)N(Cc2ccncc2)Cc2cccc(OCCc3ccc(F)cc3)c2)n1	inactive: 54.8

From the supplement of paper PMC12889115
